# The whole screen tested about 310,000 compounds, of which about 2,200 (0.71%) showed an effect of 50% or more. Effects have a minus sign here. The list shows a part of the results.
# Target: human ether-à-go-go-related gene (hERG) potassium channel (human, UniProt Q12809)
# Assay: primary screen, population patch clamp on CHO cells stably expressing hERG
# Chain of human ether-à-go-go-related gene (hERG) potassium channel (Q12809 whole entry, looked up): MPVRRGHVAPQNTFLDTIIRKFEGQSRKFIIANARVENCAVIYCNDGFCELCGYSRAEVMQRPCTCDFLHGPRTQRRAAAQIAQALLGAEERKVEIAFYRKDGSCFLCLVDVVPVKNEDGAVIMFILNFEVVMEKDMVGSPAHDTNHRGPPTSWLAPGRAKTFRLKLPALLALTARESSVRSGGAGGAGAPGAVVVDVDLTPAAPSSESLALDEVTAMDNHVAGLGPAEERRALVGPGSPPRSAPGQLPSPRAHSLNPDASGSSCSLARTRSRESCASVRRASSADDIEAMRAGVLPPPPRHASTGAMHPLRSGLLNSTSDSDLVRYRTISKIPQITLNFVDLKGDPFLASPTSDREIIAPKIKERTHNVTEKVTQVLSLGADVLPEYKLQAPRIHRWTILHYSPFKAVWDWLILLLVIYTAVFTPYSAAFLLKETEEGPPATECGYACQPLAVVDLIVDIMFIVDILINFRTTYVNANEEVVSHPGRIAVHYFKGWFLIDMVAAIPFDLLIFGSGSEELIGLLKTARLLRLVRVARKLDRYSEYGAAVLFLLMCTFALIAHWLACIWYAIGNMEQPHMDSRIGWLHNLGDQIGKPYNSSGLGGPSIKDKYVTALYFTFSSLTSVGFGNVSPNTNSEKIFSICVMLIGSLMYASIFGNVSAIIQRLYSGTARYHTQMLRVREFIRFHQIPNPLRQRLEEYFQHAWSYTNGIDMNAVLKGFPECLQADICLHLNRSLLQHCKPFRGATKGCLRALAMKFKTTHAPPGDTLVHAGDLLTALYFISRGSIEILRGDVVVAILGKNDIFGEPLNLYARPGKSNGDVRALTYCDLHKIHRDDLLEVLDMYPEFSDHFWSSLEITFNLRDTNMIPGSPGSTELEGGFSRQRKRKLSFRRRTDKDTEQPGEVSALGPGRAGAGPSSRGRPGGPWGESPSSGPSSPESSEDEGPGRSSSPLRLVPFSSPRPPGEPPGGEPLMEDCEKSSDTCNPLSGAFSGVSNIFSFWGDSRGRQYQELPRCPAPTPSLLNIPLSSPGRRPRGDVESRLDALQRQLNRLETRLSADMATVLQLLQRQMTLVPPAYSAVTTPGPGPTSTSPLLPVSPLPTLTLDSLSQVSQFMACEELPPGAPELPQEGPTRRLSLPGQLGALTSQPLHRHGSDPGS
row,SMILES,"hERG current change (%, negative = inhibition) at 1uM [%]"
1,CCOC(=O)N1CCN(C(=O)c2cnsn2)CC1,10.7
2,CCCN(CCC)S(=O)(=O)c1ccc(C(=O)N2CCN(C)CC2)cc1,9.6
3,O=C(Nc1cccnc1)c1ccc(Cl)c(S(=O)(=O)N2CCOCC2)c1,4.49
4,NC(=O)[C@@H]1CCCN1C(=O)c1cc(COc2ccc3c(c2)CCCC3)on1,6.71
5,CCNCCC(=O)N1c2ccccc2Sc2ccc(NC(=O)OCC)cc21.Cl,-5.29
6,Cc1cccc(OCc2nnc(SCC(=O)Nc3cccc(C(=O)N4CCOCC4)c3)n2C)c1C,9.42
7,CCCCOc1ccc(C(=O)N2CCCC2C(=O)O)cc1 (stereo not shown),-3.78
8,O=C(O)[C@@H]1CCCN1S(=O)(=O)c1cccc(S(=O)(=O)N2CCC[C@H]2C(=O)O)c1,10.5
9,COC(=O)CC1C(=O)NCCN1C(=O)c1cc([N+](=O)[O-])ccc1Cl (stereo not shown),14.7
10,Clc1ccccc1C1=CC(c2ccco2)n2nnnc2N1 (stereo not shown),9.01
11,CC(C)Sc1nc(N2CCCC2)c2c(c1C#N)CC(C)(C)OC2,-0.586
12,CSc1ccccc1OCc1cc(C(=O)N[C@H]2CCCCNC2=O)no1,4.94
13,O=C(Oc1ccc2c(c1)OCO2)c1ccc(F)cc1Cl,-3.08
14,COc1cccc(-n2c(CN3CCOCC3)nc3ccc([N+](=O)[O-])cc3c2=O)c1,7.9
15,COC(=O)c1c(NC(=O)COC(=O)c2ccccn2)sc(C)c1C,10.7
16,CC(C)c1nnc(NC(=O)CCc2ccccc2)s1,18.7
17,CCOC(=O)CSc1nnc(-c2cccnc2)n1C,8.02
18,Cc1ccc(Cn2c(SCCN3CCOCC3)nc3c2c(=O)n(C)c(=O)n3C)cc1,-6.9
19,O=C(Cn1c(C(F)(F)F)nc2ccccc21)NCCN1CCCC1,8.48
20,CCOc1ccc2nc(NC(=O)CN3CCN(c4ccccn4)CC3)sc2c1,3.81
21,Nc1nnc(SCC(=O)NC2CCCC2)s1,15.1
22,CCc1noc(C)c1C(=O)OCC(=O)Nc1ccc(F)cc1Cl,13
23,CC(=O)c1cccc(NC(=O)CCS(=O)(=O)c2cccc3nsnc23)c1,8.23

row,SMILES,"hERG current change (%, negative = inhibition) at 1uM [%]"
1,COc1ccc(C(C)=O)cc1CSc1nc2cc(Cl)ccc2o1,15.4
2,N#Cc1ccccc1COC(=O)c1ccc(Br)o1,12.9
3,COc1ccc(C2C(C(=O)OCC3CCCO3)=C(C)NC3=C2C(=O)CC(c2ccco2)C3)cc1O (stereo not shown),16.6
4,COc1ccc(-c2[nH]ncc2C2N=C(N)Nc3nc4ccccc4n32)cc1 (stereo not shown),20.8
5,COc1cc(OC)cc(C(=O)N[C@H](C(=O)OCC(N)=O)C(C)C)c1,13.3
6,COC(=O)/C(=C1\Oc2ccc(C(C)(C)C)cc2S1)C(F)(F)F,3.38
7,Cn1c(=O)cc(SCC(=O)NCc2ccc(F)cc2)c2ccccc21,6.18
8,CO/N=C(/C(=O)N[C@@H]1C(=O)N2C(C(=O)[O-])=CCS[C@H]12)c1cnc(N)s1.[Na+],16
9,CC1=NN(C(=O)CCc2ccccc2)C(O)(c2ccncc2)C1 (stereo not shown),3.74
10,Cc1c(OCc2nn[nH]n2)ccc2c3c(c(=O)oc12)CCCC3,-8.18
11,CC(OC(=O)CCc1nc2ccccc2[nH]c1=O)c1ccccc1 (stereo not shown),12.6
12,O=C1c2ccccc2-c2nc3ccccc3cc21,12.9
13,CC(C)(C)NC(=O)c1cc(NC(=O)c2cccs2)cc(NC(=O)c2cccs2)c1,18.6
14,Cc1c(Cl)cccc1-n1c(SCC(=O)NCc2cccs2)nnc1-c1ccncc1,-8.68
15,CCOc1ccc(CC(=O)NCCS(=O)(=O)N2CCN(c3ccccc3)CC2)cc1,10.2
16,CCOC(=O)C1CCCN(C(=O)Cn2ncc3c([nH]c4ccc(C)cc43)c2=O)C1 (stereo not shown),12.8
17,COCCn1c(=O)c2ccccc2c2ccccc2c1=O,11.4
18,O=C1CC(N(CCc2ccccc2)C(=S)Nc2ccccc2)C(=O)N1c1ccc(Br)cc1 (stereo not shown),12.5
19,O=C(CSc1nnnn1C1CCCCC1)NCc1ccco1,10.7
20,O=C(CCc1nnc2ccc(NCc3ccco3)nn12)Nc1ccc(F)cc1F,-0.592
21,COc1ccc(Cl)cc1C(=O)NC(C)C,6.02
22,Cc1ccccc1NC(=O)Cn1nnc2c(cnn2-c2ccc(F)cc2)c1=O,5.23
23,Cc1ccc(S(=O)(=O)CC(=O)N(C)C)cc1,10.9

# Reference: PMC4336329 (PLoS ONE, 2015)
